According to the supplement of paper PMC11417369:
± gives the standard deviation of the averaged measurements. Some of the results follow.

System: PfAP2-G AP2 domain (GST-tagged)
Assay: gcPBM binding intensity (ln(normalized median fluorescence intensity)); higher = stronger DNA binding
Procedure, shortened: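 An Agilent 4 × 180k array of primer-extended double-stranded 36-bp intergenic genomic probes, with negative controls, was incubated for 1 h with GST-tagged P. falciparum DNA-binding domains expressed in E. coli. Alexa488 anti-GST antibody detected bound protein, scanned at 488 nm. Binding intensity is the highest Masliner-normalised natural-log median intensity across replicate spots of either probe orientation.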

| Sequence | gcPBM binding intensity (ln) |
| --- | --- |
| AAAACTATAAAAATTTTACACACTGTTTTTAAATAA [CACACA_site3667] | 9.71 ± 0.32 |
| AAAAAATATATATATATATATATGTAATATTTTTTT [XGTACX_negctrl_site439] | 9.565 ± 0.007 |
| TGGCAAAATAGGCACACACACATATACAGATATATT [CACACA_site4727] | 10.2 ± 0.18 |
| TCAATGAAATTAATATGTACATATTTTTATATAGTA [XGTACX_site7955] | 11.3 ± 0.73 |
| TAAATATATATATAAGTGCATTATATATATATATAA | 9.76 ± 0.22 |
| TTCTAAAATTATATAGTGCAATTATTTTATTTTTCT | 9.76 ± 0.099 |
| AAAAAAATAAAACACATACATATATGTATATATATA [GTGCAC_negctrl_site390] | 9.77 ± 0.2 |
| AAAGAAAAAAAATAATGTACATATGTATTTGAGAAA [XGTACX_site3571] | 11 ± 0.47 |
| ATTAATAATTATTATGGTACACATGTAACTACTCTC [XGTACX_site198] | 11.1 ± 0.54 |
| ATCTCTTACATATTCACACACATATAAATAACTACA [CACACA_site6816] | 10.2 ± 0.2 |
| ATATGATAGTTTATATGTACATAAATAAATACATAC [XGTACX_site2917] | 11.4 ± 0.69 |
| AAAAAAAGAAAAAAACGTACATGAAAATTTTTTGTT [XGTACX_site5135] | 11.5 ± 1.1 |
| TGTAGAAGAACCCATGCATGCAGTATGAAAAAAAAA [TGCATGCA_site907] | 10.2 ± 0.23 |
| CTATATAAAAAAATTGCACACATAAATATATACATA [CACACA_site8325] | 10.2 ± 0.21 |
| ATAAATCCCAAAACCTTGCAAGACAACGTTTGATCA [CACACA_negctrl_site1327] | 9.8 ± 0.15 |
| TACATTTAAAAAAAAACACACATATTTATATTTATA [CACACA_site7236] | 9.57 ± 0.15 |
| GGAAGGATATAACATACACACACACCCATATATATA [CACACA_site9376] | 9.975 ± 0.021 |
| CATACATACATACATACACACATATATAAATATATG [CACACA_site7028] | 10.6 ± 0.3 |
| TAAGTGATCGCATAATGTACATATTATTTATTATTT [XGTACX_site3061] | 11.2 ± 0.61 |

| Sequence | gcPBM binding intensity (ln) |
| --- | --- |
| ATACTTTATAAATACTAAAGTGTATTTTGTAATATA [CACACA_negctrl_site1710] | 9.9 ± 0.27 |
| ATTTGTATATATAATTGTACGCATATTCTATACGAT [XGTACX_site7367] | 11.6 ± 1.1 |
| TTATGTATTTATTTATGTACTAATTGTATGCATATT [XGTACX_site6436] | 11.1 ± 0.68 |
| TTTCCTGGTCAAGGGGTTACGGTTACGTCCTCTTGC [CACACA_negctrl_site856] | 10.7 ± 0.49 |
| CATATACATAGACACACACACACATAAATAAATATA [CACACA_site6749] | 10.2 ± 0.35 |
| ATATTATCACAAGGTGGTACACAAAAAAAAAAAAAA [XGTACX_site8224] | 11.4 ± 0.95 |
| AAAAATATGAAAGTAACTAAGTTGTTATTGATAACA [CACACA_negctrl_site1608] | 9.74 ± 0.15 |
| ACGTTAGGCTTATTTGCACACTTGTATTATAATTTT [CACACA_site1317] | 10.4 ± 0.12 |
| TATATTTAAGTACATAAATAAGCCCATTTACATACA [CACACA_negctrl_site1224] | 11.3 ± 0.89 |
| TTTGGAGAATTCATAGTGCATTTATTTATTGTTAAT | 9.725 ± 0.021 |
| TACTTTCACATTAAATGTACGTATAGTTTCATTCTT [XGTACX_site8528] | 11.4 ± 0.78 |
| ATATTAAAAATATATACACACATATATATAAATATA [CACACA_site2257] | 9.655 ± 0.007 |
| ATAAATATGGAGCACACACACATAAACATACAGATA [CACACA_site4395] | 10.5 ± 0.35 |
| ATATTATAAATATAATGTACGTTTTAATTTCATGTT [XGTACX_site3557] | 11.2 ± 0.79 |
| TATATGAGCATAAAGACACACAAATAAAACCAAACA [CACACA_site3856] | 10.2 ± 0.14 |
| AAAATAAAATGAAAACGTACATGATAAATTTTAATT [XGTACX_site4199] | 11.1 ± 0.72 |
| ATATATAATTATTGAAGTACTTGTTCATAAAATGGT [XGTACX_site5656] | 11.4 ± 0.86 |
| TAAATGAATTTTACTATACACACGTATACATTTGTA [CACACA_site1210] | 10 ± 0.057 |
| ATATTTAAATTTTGCACACGCATATGAAATTAGGAC [CACACA_site1035] | 10.5 ± 0.28 |

| Sequence | gcPBM binding intensity (ln) |
| --- | --- |
| AAAATAAATAAATATACACACCATATTTATATTTTT [CACACA_site7361] | 9.59 ± 0.27 |
| AGAACAATTCTGTGGTGTACCAAAAAAAATTTAATT [XGTACX_site8082] | 11.3 ± 0.55 |
| AAAATTAAAATACGTACACACCTTATCTTTTTGGCT [CACACA_site4311] | 11.7 ± 1.1 |
| TACTACACACATTCATGTACTTGATAAATTAATGAT [XGTACX_site6444] | 10.9 ± 0.47 |
| ATAACTAATATGAAATGTACCCATCAAAGTGTGCAT [XGTACX_site4463] | 10.9 ± 0.61 |
| TAATTTGTTATTTATTGTACAAACATTATATGTTAA [XGTACX_site6637] | 10.7 ± 0.33 |
| ATACATCAAGGACACACACACACACCCACACCCACA [CACACA_site8013] | 10.9 ± 0.6 |
| GAAACATACATTTTTTGTCCGTAAGTATTATAATAA [XGTACX_site3273] | 11 ± 0.55 |
| AGTAGAATATCCCCTACACACCCAAATAATTTACAA [CACACA_site8339] | 10.2 ± 0.11 |
| AACTTACTTGGACATACACACATATATATATATATA [CACACA_site2978] | 10.7 ± 0.49 |
| TTTATATATTTTAGGTGTACATAAATTTTTATATAT [XGTACX_site5597] | 11.7 ± 1.1 |
| TCAAATATTCATAAATGTACATTTATTTTTCTCCTT [XGTACX_site5827] | 10.7 ± 0.35 |
| TAACTTAATATTAATGCACACAATTTATATATATAT [CACACA_site3903] | 10 ± 0.2 |
| CTATGAATAGGAAAAAGTACTAAACCTTTATATATA [XGTACX_site5022] | 11 ± 0.49 |
| ATTTTGCCTGACCCATGTACATATTATTTTTTGCAT [XGTACX_site2258] | 11.3 ± 0.43 |
| CACATAAAAATTGTGTTGCACTTTTATTCTTATATC | 10.5 ± 0.35 |
| GTAACAAATTAATAGTGTACATATTTTAAAAAAATA [XGTACX_site7150] | 11.6 ± 0.88 |
| TTTTGTTGAAAAAAAAAAAAAAAATTAAATTAAATT [GTGCAC_negctrl_site636] | 9.535 ± 0.035 |
| CATAGACACGAACATACACACGGACATACATACGGA [CACACA_site8101] | 10.9 ± 0.55 |
